This is one part of the list.
Tested on: T1, C. trachomatis L2/434/Bu expressing GFP (CTL2-GFP)
T1 construct: L2/434/Bu GFP intracellular growth in HeLa cells
Parameters: species or system HeLa; C. trachomatis total inclusion area by high-content imaging, normalised to DMSO
Settings: total inclusion area; 28.5 h, 10 µM; inhibitor
How it was run: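 High-content imaging followed the bulk GFP/resorufin measurement: fixed, Hoechst-stained cells were scored for GFP inclusions and host nuclei per well. Total inclusion area and count served as growth proxies, nuclei number as the viability proxy. MIC calculation matched the bulk assay.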

SMILES	% of control remaining
COc1ccc(C(=O)Nc2cc(C)c3c(=O)oc4ccccc4c3n2)cc1 [CBK287435]	80.5924
O=C(O)C1CC=CCC1C(=O)c1c[nH]c2ccccc12 (stereo not drawn) [CBK286603]	91.2506
N#Cc1ccccc1COC(=O)c1cc(-c2ccc(/C=C/c3[nH]c(=O)[nH]c(=O)c3[N+](=O)[O-])o2)ccc1Cl [CBK268888]	77.3761
Cc1ccc(C(=O)CC(C(=O)O)c2cn(CCC#N)c3ccccc23)cc1 (stereo not drawn) [CBK287194]	93.8796
Cc1nn(Cc2ccccc2)c(C)c1NC(=O)CSc1nc2c(c(C(F)(F)F)n1)CCc1ccccc1-2 [CBK266112]	0
O=C(CSCc1ccccc1Cl)Nc1ccc(-c2nnc(-c3ccccc3)o2)cc1 [CBK268656]	107.061
COCCN1C(=O)C2(CC(=O)N(CCCCC(C)C)C2=O)c2cc(OC)ccc21 (stereo not drawn) [CBK075145]	92.877
O=C(c1cccc(F)c1)N1CCC(c2nnc3n2CCCCC3)CC1 [CBK284627]	97.213
COC(=O)c1sccc1N1C(=O)CSCC1=O [CBK021934]	69.593
Cc1ccc(C(=O)CCC(=O)CCC(=O)O)cc1 [CBK265546]	105.384
COc1ccc(C(=O)NC(Nc2ccccc2)C(Cl)(Cl)Cl)cc1OC (stereo not drawn) [CBK263680]	78.5328
CCC(C(=O)N1CCC(O)(c2ccccn2)CC1)c1ccccc1 (stereo not drawn) [CBK283768]	97.4389
O=C(NC[C@H]1C[C@@H]2CC[N@]1C[C@@H]2CN1CCN(c2ccccn2)CC1)Nc1ccsc1 [CBK289113]	60.0564
O=C(CSc1nnc(-c2ccccc2F)n1-c1ccccc1)Nc1ccc2cn[nH]c2c1 [CBK267591]	92.0497
O=C(COc1ccc(F)cc1)Nc1ccc2ncccc2c1 [CBK159816]	119.973
Cc1nn(C)c(C)c1C1CCCN1CC(=O)NCc1ccccn1 (stereo not drawn) [CBK305501]	57.4963
NC(=O)c1ccc(C#Cc2ccccc2)o1 [CBK009809]	63.6197
O=C(CCc1cccc(F)c1)Nc1cnc(-c2ccc(F)cc2)c(-c2ccoc2)n1 [CBK037077]	116.415
CN1CCN(CCC(=O)N/N=C/c2ccc3c(c2)OCO3)CC1 [CBK261498]	96.3341
CC(C)c1ccc(OCC(=O)NCc2ccccn2)c(Br)c1 [CBK265910]	105.453
CN(CC(=O)N(C)CC(F)(F)F)Cc1cccnc1 [CBK282075]	102.099

SMILES	% of control remaining
Oc1cccc(-c2nccnc2NCc2ccc(Cl)cc2)c1 [CBK037650]	102.443
Cc1cnc2n(c1=O)C(CC(=O)NCc1ccncc1)CS2 (stereo not drawn) [CBK287671]	102.876
Cc1noc(C)c1CN1CCC(c2ccccc2)C1 (stereo not drawn) [CBK304451]	94.3118
Cc1nc(CCNC(=O)N(Cc2ccsc2)C2CC2)nc2c1CCCC2 [CBK307674]	74.0913
COc1ccnc(Sc2ccc(Cl)cc2)c1C#N [CBK018571]	8.368
O=[N+]([O-])c1ccc2c(c1)C(O)n1nc(-c3ccncc3)nc1S2 (stereo not drawn) [CBK288533]	77.3449
COc1ccc(S(=O)(=O)N2CCN(C(=O)c3cc(-c4ccncc4)nc4ccc(Br)cc34)CC2)cc1 [CBK267750]	78.6701
CC(Sc1ccccc1)C(=O)NCCCN1CCOCC1 (stereo not drawn) [CBK269214]	106.864
CCc1cccc(NC(=O)NCCC2=CCCCC2)c1 [CBK045009]	82.1425
COc1ccc(CNC(=O)c2cc(S(=O)(=O)N3CCCC3)cn2C)cc1 [CBK304637]	66.9064
Cc1cc(NC(=O)c2ccc3[nH]ccc3c2)c2ccccc2n1 [CBK116270]	78.8456
CN(C)S(=O)(=O)c1ccc(C(=O)Nc2ccc(Br)cc2C(=O)c2ccccc2)cc1 [CBK263243]	67.0807
COc1ccc(OC)c(NC(=O)C(C)Oc2ccccc2OC)c1 (stereo not drawn) [CBK269766]	51.431
O=C(CCNc1n[nH]c(=O)[nH]c1=O)N/N=C/c1ccc(C(F)(F)F)cc1 [CBK263518]	104.613
Cc1ccc(C(=O)Nc2nnc(C3=COCCO3)o2)cc1C [CBK287413]	88.8559
CCOC(=O)c1c(NC(=O)C2C3CCC(C3=C(C)C)C2C(=O)O)sc2c1CCCCC2 (stereo not drawn) [CBK265439]	93.9692
COCC(=O)N1CCc2sccc2C1c1ccc(NCc2ccccc2F)cc1 (stereo not drawn) [CBK286446]	109.907
CC(=O)Nc1ccc(Nc2ncnc3c2cnn3-c2ccc(C)cc2C)cc1 [CBK265803]	105.214
Cn1cncc1CN1C2CCC1CC(O)(c1ccccc1F)C2 (stereo not drawn) [CBK282649]	108.437
CC(C)CCCC(=O)n1ccn(-c2ccc(N(C)C)cc2)c1=O [CBK106603]	86.732
COc1cc(OC)c(NS(=O)(=O)c2ccc(C(=O)O)cc2)cc1Cl [CBK296620]	98.8667

SMILES	% of control remaining
O=C(OCCc1ccncc1)N1CCCC(F)(F)C1 [CBK200157]	114.105
Cn1cc(CCCNC(=O)c2cccc(CN3CCCCCC3)c2)cn1 [CBK306906]	109.337
O=C1CC(C(=O)O)SC(NNC(=O)c2ccccc2)=N1 (stereo not drawn) [CBK267944]	112.81
CCN(CC)CCn1c(-c2ccccc2)c(OCCO)c2ccccc2c1=O [CBK010078]	105.274
O=c1[nH]c(=O)n(Cc2cccnc2)c2nc[nH]c12 [CBK291260]	90.526
CCc1nc2ccc(C(=O)NCCCN3CCCC3=O)cn2c1N(C)Cc1cccs1 [CBK145536]	119.085
CN1CCN(Cc2nc3c(c(=O)n(C)c(=O)n3C)n2Cc2c(F)cccc2Cl)CC1 [CBK269179]	126.489
CC(=O)N1CCC2(C/C=C/C[C@H]3CN(CC(N)=O)CC[C@H]3NC(=O)CNC2=O)CC1 [CBK292148]	98.6508
COc1ccc2[nH]cc(C3CCN(C(=O)c4cc(C#N)c[nH]4)CC3)c2c1 [CBK305479]	23.8661
O=C(Cc1ccsc1)N1CCCC1c1nc2ccccc2[nH]1 (stereo not drawn) [CBK283740]	83.1306
CC(=O)Nc1ccc(N2CC34C=CC(O3)C(C(=O)O)C4C2=O)cc1 (stereo not drawn) [CBK287020]	101.774
CN1CCN(c2cncc(-c3ccccc3CO)n2)CC1 [CBK065302]	126.446
COc1cccc2ncn(CCCn3cccn3)c(=O)c12 [CBK307094]	91.1526
COc1ccc(-n2c(S)nnc2-c2cc(C(C)(C)C)n[nH]2)cc1 [CBK269071]	96.2107
CC(C)(C)OC(=O)NCC1CCC(C(=O)O)CC1 (stereo not drawn) [CBK278598]	86.8051
CCC(=O)N1CCC(c2cc(C(F)(F)F)n3nc(C)cc3n2)CC1 [CBK284367]	60.6821
CN(c1ccccc1)S(=O)(=O)c1ccc(C(=O)NCc2cccnc2)cc1 [CBK297522]	87.0322
CC12CCC(=O)N1CCCN2Cc1cnn(-c2ccc(F)cc2)c1 (stereo not drawn) [CBK281819]	88.6699
O=C(N[C@@H]1COCC[C@@H]1OCC1CC1)c1cccc2c1NCCC2 [CBK307227]	81.8733
OC1(c2cccnc2)CCCN(Cc2ccccc2F)CC1 (stereo not drawn) [CBK283009]	104.439
CCCNC(=O)Cc1sccc1NS(=O)(=O)c1ccc(C)cc1 [CBK038118]	85.72

SMILES	% of control remaining
CC1(C(=O)O)CCC(C(=O)Nc2ccc(F)cc2)C1(C)C (stereo not drawn) [CBK286953]	97.8421
O=C(NCc1ccccc1Cl)N(Cc1cccc(Cl)c1)CC1CCNCC1 [CBK049762]	80.4119
O=C(Nc1nc2c(s1)CCc1ccccc1-2)C1CC1 [CBK287330]	111.944
Cc1ccc(OCCCN2CCN(C)CC2)c(Cc2ccccc2)c1 [CBK269650C]	77.1414
CSc1nc2sc3c(c2c(=O)n1-c1ccccc1C)CC(C)(C)OC3 [CBK091875]	124.453
COc1ccc(C2(NC(=O)c3cnn(C)c3C)CCCCC2)cc1 [CBK283731]	74.0228
CCn1cc(CN(Cc2ccccc2)CC2CCCO2)c(C)n1 (stereo not drawn) [CBK283265]	116.369
Cc1c(C(=O)NC2CCN(c3ncccc3C#N)CC2)ccn1C [CBK307681]	32.4008
CCC(CO)Nc1cncc(-c2cc(C(C)C)ccc2OC)n1 (stereo not drawn) [CBK065743]	59.3189
Cc1cc2n(n1)[C@@H](C(F)F)C[C@@H](C1CCN(C(=O)C(C)C)CC1)N2 [CBK284725]	108.577
C[C@H](NC(=O)N1CCN(C(=O)c2c[nH]c3ccccc23)CC1)C(=O)O [CBK286581]	99.0085
O=S(=O)(Nc1nnn[nH]1)c1ccc(-c2cnco2)s1 [CBK062394]	78.395
COCCOC(=O)N1CCC(N(C)Cc2ccc(-c3ccc(S(C)(=O)=O)cc3)nc2)CC1 [CBK165258T]	50.0101
O=C(c1ccco1)N1CCC(c2nnc3n2CCCCC3)CC1 [CBK284607]	103.312
O=C(CCCN1CCN(C(=O)NC2CCC(O)CC2)CC1)c1ccc(F)cc1 (stereo not drawn) [CBK025156C]	105.219
CCOC(=O)c1cnn(C2CCCN(C(=O)c3cscc3C)C2)c1 (stereo not drawn) [CBK305385]	76.2346
COc1cccc(-c2n[nH]c3c2C(c2cccnc2)NC3=O)c1 (stereo not drawn) [CBK288238]	90.5435
CCN(Cc1ccccc1)C(=O)Nc1ccccc1 [CBK012816]	95.571
